# Data taken from patent US20190153113A1, “CD39 VASCULAR ISOFORM TARGETING AGENTS” (INNATE PHARMA, priority 2015, published 2019).
# “Also recorded” adds a separate entry of the source.
# T1: CD39-L1 (Homo sapiens, UniProt Q9Y5L3)
# T1 sequence (Q9Y5L3 1-472 isoform Q9Y5L3-2): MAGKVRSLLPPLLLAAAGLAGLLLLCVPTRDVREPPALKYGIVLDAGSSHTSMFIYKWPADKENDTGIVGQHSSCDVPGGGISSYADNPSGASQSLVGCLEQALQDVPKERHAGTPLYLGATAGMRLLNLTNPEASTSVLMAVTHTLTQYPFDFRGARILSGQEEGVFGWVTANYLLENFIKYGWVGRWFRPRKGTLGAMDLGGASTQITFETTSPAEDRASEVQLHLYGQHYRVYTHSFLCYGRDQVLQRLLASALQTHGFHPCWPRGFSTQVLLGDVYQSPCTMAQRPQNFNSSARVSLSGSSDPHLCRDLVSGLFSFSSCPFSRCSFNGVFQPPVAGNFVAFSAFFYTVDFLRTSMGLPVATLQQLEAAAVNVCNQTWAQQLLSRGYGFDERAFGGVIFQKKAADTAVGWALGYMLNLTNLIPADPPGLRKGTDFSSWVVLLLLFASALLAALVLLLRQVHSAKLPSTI
# T2: CD39-L3 (Homo sapiens, UniProt O75355)
# T2 sequence (O75355 1-529): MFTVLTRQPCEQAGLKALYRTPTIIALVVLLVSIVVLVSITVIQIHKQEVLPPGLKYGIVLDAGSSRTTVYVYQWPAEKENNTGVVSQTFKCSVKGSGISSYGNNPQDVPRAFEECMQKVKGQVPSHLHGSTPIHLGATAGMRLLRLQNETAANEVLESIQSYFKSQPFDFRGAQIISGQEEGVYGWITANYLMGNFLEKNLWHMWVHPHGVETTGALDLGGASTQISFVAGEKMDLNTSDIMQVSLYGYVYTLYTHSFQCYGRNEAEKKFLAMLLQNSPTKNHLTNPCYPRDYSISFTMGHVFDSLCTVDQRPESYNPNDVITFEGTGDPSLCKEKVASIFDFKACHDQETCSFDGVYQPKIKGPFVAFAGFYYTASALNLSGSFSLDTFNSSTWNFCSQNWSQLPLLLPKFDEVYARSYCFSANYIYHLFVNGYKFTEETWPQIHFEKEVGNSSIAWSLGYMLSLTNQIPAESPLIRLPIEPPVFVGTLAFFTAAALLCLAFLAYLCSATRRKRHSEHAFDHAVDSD
# T3: CD39-L4 (Homo sapiens, UniProt O75356)
# T3 sequence (O75356 25-428): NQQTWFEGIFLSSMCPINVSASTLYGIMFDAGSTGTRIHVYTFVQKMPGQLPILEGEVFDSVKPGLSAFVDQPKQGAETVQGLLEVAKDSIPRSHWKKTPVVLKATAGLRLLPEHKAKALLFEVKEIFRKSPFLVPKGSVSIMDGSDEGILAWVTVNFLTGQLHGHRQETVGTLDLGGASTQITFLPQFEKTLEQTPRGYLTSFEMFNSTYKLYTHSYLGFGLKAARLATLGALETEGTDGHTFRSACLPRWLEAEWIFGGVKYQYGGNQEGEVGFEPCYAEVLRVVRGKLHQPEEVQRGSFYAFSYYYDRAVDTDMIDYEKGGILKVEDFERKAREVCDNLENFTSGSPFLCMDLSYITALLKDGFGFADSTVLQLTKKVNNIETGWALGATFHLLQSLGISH
# T4: vascular CD39 (Homo sapiens, UniProt P49961)
# T4 construct: recombinant human CD39-M2 extracellular domain recombinant protein; made in house; host or cells: CHO cells (secreted, purified from supernatant)
# T4 sequence (P49961 38-478 limits assumed): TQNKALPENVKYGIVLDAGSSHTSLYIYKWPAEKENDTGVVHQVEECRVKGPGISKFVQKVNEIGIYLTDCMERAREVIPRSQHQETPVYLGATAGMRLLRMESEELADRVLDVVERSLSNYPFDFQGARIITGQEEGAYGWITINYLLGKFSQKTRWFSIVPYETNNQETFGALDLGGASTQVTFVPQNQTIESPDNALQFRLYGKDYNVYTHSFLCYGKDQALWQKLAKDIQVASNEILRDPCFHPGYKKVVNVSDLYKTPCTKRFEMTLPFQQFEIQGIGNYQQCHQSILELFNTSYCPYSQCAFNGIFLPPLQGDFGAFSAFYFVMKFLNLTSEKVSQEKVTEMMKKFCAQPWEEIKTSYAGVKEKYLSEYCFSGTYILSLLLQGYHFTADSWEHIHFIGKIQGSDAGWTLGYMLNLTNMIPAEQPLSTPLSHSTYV
# T5: human CD39 at cell surface (Homo sapiens, UniProt P49961)
# T5 construct: cells that endogenously express CD39 at their surface, e.g. regulatory T (TReg) cells, B cells, cancer cells, lymphoma cells (e.g. Ramos cells); endogenous in cells; host or cells: Ramos human lymphoma cells
# T5 sequence (P49961 1-510): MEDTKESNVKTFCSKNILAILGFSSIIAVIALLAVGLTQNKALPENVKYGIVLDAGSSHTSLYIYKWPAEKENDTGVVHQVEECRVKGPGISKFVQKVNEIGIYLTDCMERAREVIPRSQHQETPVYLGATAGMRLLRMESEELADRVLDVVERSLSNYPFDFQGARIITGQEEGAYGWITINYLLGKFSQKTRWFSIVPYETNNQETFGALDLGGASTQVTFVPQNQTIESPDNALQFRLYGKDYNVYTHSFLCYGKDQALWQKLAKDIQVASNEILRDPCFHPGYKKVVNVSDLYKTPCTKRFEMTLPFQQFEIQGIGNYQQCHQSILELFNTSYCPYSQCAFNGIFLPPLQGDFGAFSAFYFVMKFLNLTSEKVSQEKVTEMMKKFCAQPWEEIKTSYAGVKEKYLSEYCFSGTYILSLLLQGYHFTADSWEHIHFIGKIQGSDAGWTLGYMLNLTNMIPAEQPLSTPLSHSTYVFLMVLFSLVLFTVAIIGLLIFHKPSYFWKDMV
# T6: CD39 (Homo sapiens, UniProt P49961)
# T6 construct: cells that endogenously express CD39 at their surface, e.g. regulatory T (TReg) cells, B cells, cancer cells, lymphoma cells (e.g. Ramos cells); endogenous in cells; host or cells: Ramos human lymphoma cells
# T6 sequence (P49961 1-510): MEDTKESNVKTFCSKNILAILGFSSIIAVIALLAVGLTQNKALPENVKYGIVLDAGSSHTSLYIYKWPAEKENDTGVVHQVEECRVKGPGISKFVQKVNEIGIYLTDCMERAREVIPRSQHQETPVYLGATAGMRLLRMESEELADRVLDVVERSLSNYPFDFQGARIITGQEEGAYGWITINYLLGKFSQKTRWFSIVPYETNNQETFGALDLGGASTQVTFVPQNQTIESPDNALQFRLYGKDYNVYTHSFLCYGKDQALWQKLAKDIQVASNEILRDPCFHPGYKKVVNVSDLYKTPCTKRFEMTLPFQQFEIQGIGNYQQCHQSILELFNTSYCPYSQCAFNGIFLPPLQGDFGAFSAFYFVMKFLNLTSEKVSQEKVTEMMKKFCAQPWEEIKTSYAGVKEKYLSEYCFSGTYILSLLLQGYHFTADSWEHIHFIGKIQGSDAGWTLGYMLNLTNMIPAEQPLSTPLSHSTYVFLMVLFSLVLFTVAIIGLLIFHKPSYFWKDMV
# B1: I-391: anti-CD39 antibody, VH SEQ ID NO: 6 and VL SEQ ID NO: 7, Fc silent chimeric human IgG1 with N297Q mutation (antibody)
# heavy: QIQLVQSGPELKKPGETVKISCKASGYTFRNYGMNWVKQAPGKGLKWMGWINTYTGEPTYADDFKGRFAFSLATSASTAYLQISNLKNEDTATYFCARKAYYGSNYYFDYWGQGTTLTVSSASTKGPSVFPLAPSSKSTSGGTAALGCLVKDYFPEPVTVSWNSGALTSGVHTFPAVLQSSGLYSLSSVVTVPSSSLGTQTYICNVNHKPSNTKVDKRV[letters of human IgG1 Fc with changes left out]
# light: DIVMTQSHKFMSTSVGDRVSITCKASQDVSTAVAWYQQKPGQSPKLLIYSASYRYTGVPDRFTGSGSGTDFTFTISTVQAEDLAVYYCQQHYTTPPYTFGGGTKLEIKRTVAAPSVFIFPPSDEQLKSGTASVVCLLNNFYPREAKVQWKVDNALQSGNSQESVTEQDSKDSTYSLSSTLTLSKADYEKHKVYACEVTHQGLSSPVTKSFNRGEC
# Columns and labels:
# [1] = target: T1, CD39-L1; assay: ELISA titration on recombinant human CD39 isoforms; assay type: binding; settings: recombinant protein coated
# Procedure: (§1) Wells were washed in TBS Tween 20, and further saturated 2H at RT in TBS Blocking buffer. Dose range concentration of primary antibody was incubated in TBS blocking buffer for 2h at RT. Wells were washed in TBS Tween 20. […] Optical density was measured on Enspire at OD=450.
# [2] = target: T2, CD39-L3; assay: ELISA titration on recombinant human CD39 isoforms; assay type: binding; settings: recombinant protein coated
# Procedure: as §1
# [3] = target: T3, CD39-L4; assay: ELISA titration on recombinant human CD39 isoforms; assay type: binding; settings: recombinant protein coated
# Procedure: as §1
# [4] = target: T4, vascular CD39; assay: ELISA titration on recombinant human CD39 isoforms; assay type: binding; settings: recombinant protein coated
# Procedure: as §1
# [5] = target: T5, human CD39 at cell surface; assay: CD39 down-modulation / internalization on Ramos cells; assay type: cell-based; settings: Ramos human lymphoma cells, 10 μg/ml, 4° C. or 37° C.
# [6] = target: T6, CD39; assay: Inhibition of CD39 enzymatic activity in Ramos cells, AMP production by Maldi TOF mass spectrometry; assay type: cell-based
# Procedure: The inhibition of CD39 enzymatic activity by antibodies was evaluated by Maldi TOF mass spectrometry (production of AMP). This assay represents an assay that is relatively insensitive to down-modulation of CD39 expression. […] After washes, cells were incubated with anti-CD39 antibodies, isotype control, or ARL and 50 μM ATP for 30 minutes at 4° C. in PBS. AMP generated is quantified in supernatants by Maldi TOP.
# The inhibition of CD39 enzymatic activity by antibodies was evaluated by Maldi TOF mass spectrometry (production of AMP). Briefly, 10^5 Ramos human lymphoma cells were incubated overnight at 37° C. with anti-CD39 antibodies or a chemical CD39 inhibitor (ARL 100 μM). After washes, cells were incubated with anti-CD39 antibodies, isotype control, or ARL and 50 μM ATP for 30 minutes at 4° C. in PBS. AMP generated is quantified in supernatants by Maldi TOP. Antibodies were used at 33 nM and ARL at […].
molecule,measurement,setting,value
B1,binding to CD39-L1,[1],without any binding
same,binding to CD39-L3,[2],not to any of the CD39 isoforms; also recorded: without any binding
same,binding to CD39-L4,[3],not to any of the CD39 isoforms; also recorded: without any binding
same,binding to vascular CD39,[4],bound to the vascular CD39; also recorded: bound only vascular CD39
same,CD39 down modulation / internalization,[5],do not induce CD39 down modulation nor CD39 internalization; also recorded: did not induce CD39 down modulation nor CD39 internalization
same,maximum inhibition achieved,[6]; 50 μM ATP,93.4%
same,blocking CD39 enzymatic activity,[6]; Example 6,very potent at blocking CD39 enzymatic activity
same,inhibition of AMP generated,"[6]; antibodies at 33 nM, Example 7",strong inhibition of AMP generated
